The series relates to ATP. Put plainly: switch fluorescence ratio, 500 uM ATP over buffer (Cy3 cluster intensity, sum of 5 cycles each) (fold (ratio)); higher = stronger signal-on switching upon ATP binding; sequences stand for … in TCGTCGGCAGCGTCAGATGTGTATAAGAGACAGTTTTTTTTTTTTTTTTTTTTTTTTT…TC. Conditions: aptamer strand: ATP DNA aptamer (quencher-CACCTGGGGGAGTATTGCGGAGGAAGG + anchor), 100 nM annealed; ATP concentration: 500 uM; one replicate. In a few lines: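 The fluorescence ratio divides summed target-cycle Cy3 intensity by summed buffer-cycle Cy3 intensity for each cluster and is averaged per switch-domain sequence. Cy3-labelled switching-strand clusters on a modified Illumina MiSeq flow-cell were annealed to 100 nM quencher-labelled ATP aptamer, then imaged in selection buffer and again after 15 min with 500 uM ATP at 22 °C. Five such cycles were run, with NaOH stripping and re-annealing between them, and clusters outside 100-1000 RFU were excluded.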

Values marked as one replicate rest on one cluster of the flow cell; about a third of the high ones do not repeat.
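Also: ATP exposure 15 min at 22 °C before imaging.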

GGCTTGAAAG: the switch fluorescence ratio was 1.04. Regarding GATAGACCAT, the switch fluorescence ratio was determined as 1.01. Consider CAGTGCATTC, for which the switch fluorescence ratio stood at 1.27. In the case of CCGGCCCGCC, the switch fluorescence ratio turned out to be 1.33.

GCTCTAACAT: the switch fluorescence ratio is 1.05.

For the sequence AAGTCGACCC, the switch fluorescence ratio was 1.03. With CTAGTCGGGT, the switch fluorescence ratio stood at 1.04.

AGACAGTGAC: the switch fluorescence ratio came out at 1.1.

GTCACCTGCC: the switch fluorescence ratio stood at 2.04. Take TACATCTGAT: the switch fluorescence ratio stood at 0.977.

For CGGTTGT, the switch fluorescence ratio is 0.981.

As to TGGCCGAGCT, the switch fluorescence ratio came out at 0.986. On to TTTTATATGA, for which the switch fluorescence ratio was 1.02. Consider AGTGACGCA, for which the switch fluorescence ratio is 1.24. As to AAAGGAAGGA, the switch fluorescence ratio came to 0.958.

As to AGTGCGAAAC, the switch fluorescence ratio worked out at 1.08. Under CACAGTATCC stands 1.07; under GGGTGGCAAA, 1.01.

Consider TGAGAGATCC, for which the switch fluorescence ratio worked out at 1.01. Regarding ACGGAGACAA, the switch fluorescence ratio is 6.58. For the sequence TGAATGCTAG, the switch fluorescence ratio worked out at 1.01. For the sequence AAGAGCCTAC, the switch fluorescence ratio was 0.983. Consider CTAACGCTGT, for which the switch fluorescence ratio amounted to 1.23. Consider AAAGGACAAT, for which the switch fluorescence ratio was found to be 1.03. With ATTCATGTAA, the switch fluorescence ratio turned out to be 0.987. ATCTGAATTC: the switch fluorescence ratio was found to be 0.977. As for CCGGTGGCGT, the switch fluorescence ratio stood at 0.974. CATCATTTGT: the switch fluorescence ratio came to 1.01. AATTAGGCC: the switch fluorescence ratio amounted to 1.

Regarding CAAGAGATG, the switch fluorescence ratio was found to be 1.01. As for CCAGCGTTGG, the switch fluorescence ratio was 1.

With CCGTTATTGG, the switch fluorescence ratio is 1. The figure for TTGTATTTT is 1.02; for TGGTATATTG it is 0.959; for ATATTATATC it is 0.991. Take ACAGTTAGGC: the switch fluorescence ratio came out at 1. On to AAGGGCGGTT, for which the switch fluorescence ratio amounted to 1.04. In the case of GCTGCAACAG, the switch fluorescence ratio was 1.1. The figure for AGTTTCCACA is 1.04; for AGGCGTTCGA it is 0.994. As for ATCGTCCTGG, the switch fluorescence ratio came out at 1.01. TGTCCTAAAC: the switch fluorescence ratio was 1.02.

Regarding GATGTATCCT, the switch fluorescence ratio stood at 1.05.

Take GCGCAGGAAT: the switch fluorescence ratio was 1.01.

In the case of GTCATCACTT, the switch fluorescence ratio was 1.06. The figure for ACTGATAATT is 1.02; for ACAAACACGG it is 1.34. Under GGCCTGTCAT stands 0.996; under AAAGACATAG, 1. On to GAATATGTTC, for which the switch fluorescence ratio is 0.991. For ACAAAGTTCG, the switch fluorescence ratio amounted to 1.03.

As for CGCCTTTGCG, the switch fluorescence ratio is 1.

With TCCCGATGGT, the switch fluorescence ratio turned out to be 1.02.

Regarding ACCACTTAAC, the switch fluorescence ratio came to 1.11.

With ATGGGAAGTT, the switch fluorescence ratio was 0.954.

As for CGAATGTATT, the switch fluorescence ratio was 0.994.

As for GGATTACACC, the switch fluorescence ratio came out at 1.02. Under CCGGCTCTAC stands 3.58; under GGTCCCGGAT, 0.999; under TAAAATGATC, 0.961. On to GTTAGGATCT, for which the switch fluorescence ratio came out at 0.961. For the sequence GCAAAGTTTT, the switch fluorescence ratio came to 0.999. For TGTTTTCCT, the switch fluorescence ratio was found to be 1.

For GCTAATCGCA, the switch fluorescence ratio was 1.02.

Take GATTACGCAG: the switch fluorescence ratio was determined as 0.999.

On to AGTCTGGTAC, for which the switch fluorescence ratio worked out at 1.05.

With TTCTATACGT, the switch fluorescence ratio was 1.11. CAGCACTGAC: the switch fluorescence ratio worked out at 1.76. Under ATTTAGGTAC stands 1.03; under TACTAAATGG, 1.01. Take TGTAGACATT: the switch fluorescence ratio was determined as 1.02. Consider GCCCATAACA, for which the switch fluorescence ratio was 0.996. On to TTGTTAGGAC, for which the switch fluorescence ratio came out at 0.986. In the case of GGCACCATGA, the switch fluorescence ratio amounted to 0.999. Consider GAGGTGGACT, for which the switch fluorescence ratio is 1.03. Under TTGGAACTAC stands 1.22. AACGAATGTG: the switch fluorescence ratio amounted to 1.04.

TTCAGTATGT: the switch fluorescence ratio was determined as 1.

In the case of CAGAGCCAGT, the switch fluorescence ratio was found to be 0.972.
